# Source: the RNAGym collection of RNA variant scans (doi:10.1093/nar/gkz1192)
# Read counts are not given, so values of variants with three or more changes are uncertain.
# B1: CPEB3 Ribozyme (parent)
# chain: UAACAGGGGGCCACAGCAGAAGCGUUCACGUCGCAGCCCCUGUCAGAUUCUGGUGAAUCUGCGAAUUCUGCUGUAUAUCUC
# Variants of: B1
# Assay: self-cleavage, relative activity (ratio to wild type); higher = more cleavage; in vitro, sequencing
# How it was run: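 Libraries of CPEB3 self-cleaving ribozyme mutants came from rounds of error-prone PCR and carried barcodes, which DNA sequencing matched to variants. In vitro transcription used T7 RNA polymerase at 37°C for 5 hours, with a further 15 min in DNase I before EDTA stopped the reaction; the ribozymes cleaved during both steps. The RNA was reverse transcribed with template switching and sequenced on Illumina. Relative activity is the cleaved/total read fraction of a variant divided by that of the unmutated ribozyme, averaged over three batches with at least 5 reads.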
row,Variant,self-cleavage
1,A20G A21G U72C,0.2
2,A20G A21G U74C,0.75
3,A20G A21U A28U A64G A65U U80C,0.09
4,A20G A21U A77G,0.07
5,A20G A21U C29U U48C,0.18
6,A20G A21U C62U,0.04
7,A20G A21U U26C G33A G42A U80C,0.08
8,A20G A21U U31C A57G U67A,0.17
9,A20G A28C A65G,0.14
10,A20G A28C U43A G63A U67C,0.39
11,A20G A28G A35G G52C,1.12
12,A20G A28G G33U A64G,0.08
13,A20G A28G G52U C79G,0.78
14,A20G A28G U49C G53A,0.09
15,A20G A28G U60C,0.31
16,A20G A28G U66C,0.35
17,A20G A28G U69A,0.07
18,A20G A28U A35G A47C,0.64
19,A20G A28U A57G,0.45
20,A20G A28U A57G U66A,0.19
21,A20G A28U C29U U31C A65G,0.06
22,A20G A28U C39U U60C,0.15
23,A20G A28U U43A U72C,0.64
24,A20G A28U U43C U54C,0.22

row,Variant,self-cleavage
1,A20G A28U U49C U66A,0.13
2,A20G A28U U49C U66C A77G,0.1
3,A20G A35C U49A A75G U78A,0.2
4,A20G A35G A45U U67C,0.68
5,A20G A35G A56G U78C,1.18
6,A20G A35G A64G,1.23
7,A20G A35G A64U U67C,1
8,A20G A35G U67A U72C,1.22
9,A20G A35G U78C,1.21
10,A20G A35U C81U,0.4
11,A20G A35U G55A,0.2
12,A20G A35U U43A A45U A75G,0.12
13,A20G A35U U58C U76A U80A,0.11
14,A20G A35U U60C,0.1
15,A20G A35U U67A A75U,0.29
16,A20G A45C G46U U48A U60C U78C,0.05
17,A20G A45G A77U,0.31
18,A20G A45G C50A A57C A64G,0.07
19,A20G A45U U48C U51C A77U,0.08
20,A20G A45U U51C,0.44
21,A20G A45U U58C,0.03
22,A20G A47G G55C U67C,0.4
23,A20G A47G U54A,0.79
24,A20G A47U U54C,0.11

row,Variant,self-cleavage
1,A20G A56G A77U U78C,0.68
2,A20G A56G U67C,0.68
3,A20G A56U A65U U74C,0.54
4,A20G A57G U69C U72C,0.15
5,A20G A64G U72A U76C,0.21
6,A20G A64U U66A U69C U72C U76C U78C,0.22
7,A20G A65G U66G U72C,0.12
8,A20G A75G U80G,0.74
9,A20G C23A U41C G42A U43C,0.13
10,A20G C23U A47G,0.3
11,A20G C23U G24A U26C U49C,0.24
12,A20G C23U U25C,0.38
13,A20G C23U U49G U54C C62U,0.11
14,A20G C27A U43A,0.51
15,A20G C29A U80C,0.47
16,A20G C29G A47G U54C,0.2
17,A20G C29U G46C U58A A77G,0.12
18,A20G C29U U48C U49A A56U,0.24
19,A20G C29U U54C,0.27
20,A20G C29U U54C A57G,0.26
21,A20G C32U U54G U69A,0.05
22,A20G C32U U74C,0.37
23,A20G C34G A35G A47G,0.37
24,A20G C38A U58C,0.26

row,Variant,self-cleavage
1,A20G C38G U51C U74C,0.42
2,A20G C38U U41C A75U,0.52
3,A20G C38U U67C,0.24
4,A20G C39A U51C,0.31
5,A20G C39A U54A,0.34
6,A20G C39U A57U U74C,0.16
7,A20G C39U U41A A75G,0.37
8,A20G C40A A56U U58C,0.11
9,A20G C40A U51C U69C,0.12
10,A20G C40U U67C U69C A75U U80G,0.1
11,A20G C40U U69C,0.41
12,A20G C40U U69C U80C,0.29
13,A20G C44U A57G,0.11
14,A20G C59A A77U,0.23
15,A20G C62A U72C G73A,0.13
16,A20G G22A A57G,0.14
17,A20G G22C U69A G73C,0.23
18,A20G G22U U31C U78C,0.11
19,A20G G22U U51C G52U U54C,0.15
20,A20G G24A A28G U49C U66G,0.15
21,A20G G24A A35G U74C,0.53
22,A20G G24A U25C U48C U72C,0.26
23,A20G G24C U60C U67C,0.08
24,A20G G30A U43C A56U U67C U69C A77U,0.15

row,Variant,self-cleavage
1,A20G G33A A45G U67A,0.37
2,A20G G33A A64G,0.31
3,A20G G33A U41G A65U,0.27
4,A20G G33A U72C,0.32
5,A20G G33U U41C,0.24
6,A20G G33U U43C U49C G70U U72A,0.1
7,A20G G36A G55A G63A,0.13
8,A20G G36A U69C U72C,0.06
9,A20G G36C U66C,0.36
10,A20G G36U C40U U54C,0.11
11,A20G G36U U51C U80A,0.1
12,A20G G42A A57G,0.21
13,A20G G46U U49C A77G U78A,0.15
14,A20G G53C U67C U76A U80C,1.17
15,A20G G53U U67C,1.17
16,A20G G55U U69C A75U U80C,0.23
17,A20G G61A U72A U80C,0.46
18,A20G U25A A35G A56G,0.15
19,A20G U25A U26C A64G U74C,0.2
20,A20G U25A U49C U72G,0.06
21,A20G U25C A28G,0.36
22,A20G U25C A28G A57G,0.23
23,A20G U25C A35G U58C U66C A77C U80C,0.15
24,A20G U25C A45U G63U,0.06

row,Variant,self-cleavage
1,A20G U25C A56G,0.19
2,A20G U25C A57G U72C,0.05
3,A20G U25C C32A C39G U51A U78C,0.05
4,A20G U25C C40U A45G U69G,0.4
5,A20G U25C G33A C34A U54A U78C,0.09
6,A20G U25C G55C A77G U80C,0.28
7,A20G U25C U26C A28G,0.46
8,A20G U25C U26C U66C U67C U80C,0.45
9,A20G U25C U26G A56G U76A,0.08
10,A20G U25C U26G G63A,0.42
11,A20G U25C U31C C68U U80A,0.08
12,A20G U25C U41A A45U,0.12
13,A20G U25C U41A A64G,0.38
14,A20G U25C U41A U69C,0.07
15,A20G U25C U41C U51C U54A A77G,0.04
16,A20G U25C U43A U49C A56G,0.29
17,A20G U25C U43C,0.14
18,A20G U25C U72C,0.4
19,A20G U25G U49C A57G U58A U69A C71A,0.36
20,A20G U26A A35U A64U,0.31
21,A20G U26A A35U U49A,0.28
22,A20G U26A A35U U54C,0.11
23,A20G U26A C39G U51A U74A U78C,0.42
24,A20G U26A U48C U54C,0.15

row,Variant,self-cleavage
1,A20G U26A U49C U54C,0.21
2,A20G U26A U51C C68U U80C,0.4
3,A20G U26A U60A,0.28
4,A20G U26C A45C U72A,0.16
5,A20G U26C A64U,0.11
6,A20G U26C C40U A56G,0.11
7,A20G U26C U43C U48C A56U U80C,0.1
8,A20G U26C U43G,0.16
9,A20G U26C U51A G63U U72A,0.15
10,A20G U26C U51C G63A A64G,0.12
11,A20G U26C U54A,0.4
12,A20G U26C U72C,0.2
13,A20G U26G A56U A57G,0.1
14,A20G U26G U31C A47G U49G,0.51
15,A20G U26G U54C U78C,0.27
16,A20G U31A G46A,0.45
17,A20G U31C A47G G61A U78C,0.1
18,A20G U31C C37G A57G,0.12
19,A20G U31C U49C,0.34
20,A20G U31C U60A A64U,0.12
21,A20G U31C U80C,0.66
22,A20G U31G C68G U80C,0.17
23,A20G U31G U41A U51A U69A,0.16
